Source: PMC4336329 (PLoS ONE, 2015)
Hit rate of the full screen: of about 310,000 compounds, about 2,200 (0.71%) showed an effect of 50% or more. Effects have a minus sign here. The list shows a part of the results.

The molecules below were run against human ether-à-go-go-related gene (hERG) potassium channel (human, UniProt Q12809) (assay: primary screen, population patch clamp on CHO cells stably expressing hERG).
human ether-à-go-go-related gene (hERG) potassium channel, sequence (Q12809 whole entry, looked up): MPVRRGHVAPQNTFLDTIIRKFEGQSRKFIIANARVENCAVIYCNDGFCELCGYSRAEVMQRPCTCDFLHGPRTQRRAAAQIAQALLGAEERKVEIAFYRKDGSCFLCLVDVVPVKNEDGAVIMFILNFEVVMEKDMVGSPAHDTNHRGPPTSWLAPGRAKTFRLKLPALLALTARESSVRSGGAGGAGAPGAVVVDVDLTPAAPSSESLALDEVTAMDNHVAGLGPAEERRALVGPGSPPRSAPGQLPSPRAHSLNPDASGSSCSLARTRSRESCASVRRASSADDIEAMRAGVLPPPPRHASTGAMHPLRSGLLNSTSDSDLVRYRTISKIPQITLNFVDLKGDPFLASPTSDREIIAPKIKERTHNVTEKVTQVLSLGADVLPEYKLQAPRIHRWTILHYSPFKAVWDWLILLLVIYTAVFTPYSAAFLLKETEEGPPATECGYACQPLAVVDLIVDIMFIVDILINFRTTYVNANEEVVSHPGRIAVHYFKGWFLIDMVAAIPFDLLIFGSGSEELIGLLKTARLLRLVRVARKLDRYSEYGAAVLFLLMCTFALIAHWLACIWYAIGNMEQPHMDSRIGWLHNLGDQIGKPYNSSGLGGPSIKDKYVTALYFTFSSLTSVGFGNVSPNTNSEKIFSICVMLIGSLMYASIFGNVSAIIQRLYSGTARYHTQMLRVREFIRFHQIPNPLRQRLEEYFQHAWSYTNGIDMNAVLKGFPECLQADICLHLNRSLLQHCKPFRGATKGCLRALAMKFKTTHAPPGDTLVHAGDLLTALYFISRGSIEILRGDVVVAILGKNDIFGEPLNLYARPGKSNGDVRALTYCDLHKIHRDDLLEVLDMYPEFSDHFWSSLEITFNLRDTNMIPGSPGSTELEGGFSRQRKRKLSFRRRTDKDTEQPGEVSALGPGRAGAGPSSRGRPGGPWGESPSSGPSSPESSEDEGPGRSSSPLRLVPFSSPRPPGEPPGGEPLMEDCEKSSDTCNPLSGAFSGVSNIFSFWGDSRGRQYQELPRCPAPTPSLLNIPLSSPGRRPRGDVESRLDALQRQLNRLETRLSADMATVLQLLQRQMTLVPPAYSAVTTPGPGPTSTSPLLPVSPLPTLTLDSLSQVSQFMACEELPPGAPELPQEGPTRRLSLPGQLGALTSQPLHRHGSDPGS

Row | SMILES | hERG current change (%, negative = inhibition) at 1uM [%]
1 | O=S1(=O)CC(O)C(N2CCC(c3ccccc3)CC2)C1 (stereo not shown) | 14
2 | N#Cc1cc(Sc2ccccn2)c(Sc2ccccn2)cc1C#N | 1.22
3 | COC(=O)/C=C(\C)NC(=O)c1ccccc1Cl | 19.4
4 | O=C(COC(=O)C1=Cc2ccccc2OC1)NC1CCCC1 | 16
5 | CCOc1ccc(NC(=O)c2sc3nc(N4CCOCC4)c4c(c3c2N)CC(C)(C)OC4)cc1 | 15.1
6 | COc1ccccc1CNc1nc2nc3c(c(=O)n2[nH]1)CCC3 | -2.43
7 | CCOC(=O)CN1CC23C=CC(O2)C(C(=O)O)C3C1=O (stereo not shown) | 3.94
8 | CCCCCCN1CC(C(=O)OCC)C(=O)C1=O (stereo not shown) | -1.64
9 | O=C(COC(=O)c1ccccc1[N+](=O)[O-])c1ccc(C2CCCCC2)cc1 | 10.4
10 | CCOc1ncccc1C(=O)OCC(=O)c1ccc(Cl)s1 | 6.4
11 | CC(=O)c1c(C)[n+]([O-])c2ccc3c(non3O)c12 | 8.03
12 | CCOc1ccc2cc(C#N)c(SCC(=O)NC(C)CC)nc2c1 (stereo not shown) | -1.17
13 | CCOC(=O)N1CCC(NC(=O)c2cc(C(=O)Nc3ccc(OCC)cc3)ccc2CO)CC1 | 14.7
14 | CCN1CCN(c2nc(-c3cccs3)nc3ccccc23)CC1 | -66.2
15 | CCOC(=O)C1CCCN(CCC(=O)Nc2cc(C)cc(C)c2)C1 (stereo not shown) | -9.62
16 | Cc1ccc(CCNC(=O)CCSCc2ccc(Cl)cc2)cc1 | 15.9
17 | C/C(=N\Nc1ccc(Cl)c(C(=O)O)c1)c1cc2ccccc2o1 | 5.9
18 | CC(C)(C)NC(=O)Cn1nc(C(F)(F)F)c2c1CCCC2 | 8.82
19 | C/C=C1/C[C@@H](C)[C@](O)(CO)C(=O)OCC2=CCN3CC[C@@H](OC1=O)[C@@H]23 | 14.2
20 | O=C(COc1ccccc1)N1CCN(S(=O)(=O)c2cccc([N+](=O)[O-])c2)CC1 | -9.13
21 | CCC1=NC(c2ccc(OC)cc2)N(O)C1(C)C (stereo not shown) | 16.6
22 | O=C(COc1ccc(-n2cnnn2)cc1)NCCc1ccc(F)cc1 | -5.74
23 | Cc1ccc(NS(=O)(=O)c2cccc(C(=O)NCC(c3cccs3)N3CCOCC3)c2)cc1 (stereo not shown) | 4.61

Row | SMILES | hERG current change (%, negative = inhibition) at 1uM [%]
24 | O=C(CCCNC(=O)/C(=C\c1ccc(F)cc1)NC(=O)c1ccccc1)OCc1ccccc1 | -39.2
25 | CCc1ccc(NC(=O)c2cnn(-c3ccccc3)c2C2CCNCC2)cc1.Cl | -8.84
26 | Cc1ccc(S(=O)(=O)N2CCC(Oc3ccc(-n4cnnn4)cc3)CC2)cc1 | 9.31
27 | COc1ccc(Cc2nnc(NC(=O)C(C)C)s2)cc1 | 13.4
28 | S=c1[nH]nc(-c2n[nH]c3c2CCC3)n1/N=C/C=C/c1ccccc1 | 12
29 | C=CCN1C(=O)C2(c3ccccc31)C1CCCC=C1C(C#N)=C(N)C2(C#N)C#N (stereo not shown) | 9.45
30 | O=C(Nc1nnc(-c2ccccc2)o1)Nc1ccccc1Cl | 1.8
31 | COc1cc(/C=C/CN2CCN(Cc3ccc(C)o3)C(CCO)C2)ccc1O (stereo not shown) | 5.85
32 | Cc1c(NC2=NC(C)(C)Cc3ccccc32)c(=O)n(-c2ccccc2)n1C | -0.293
33 | Cc1ccc(Cl)cc1N1CCN(c2cccc[n+]2C)CC1.[I-] | -6.18
34 | Cc1ccccc1CSCC(=O)NNC(=S)NCC1CCCO1 (stereo not shown) | 2.55
35 | COC(=O)c1ccc(NC(=S)NCCc2ccccc2)cc1 | 14.6
36 | CN(C)S(=O)(=O)Nc1ccc2c(c1)Cc1ccccc1-2 | 13
37 | OCCC1CN(Cc2cccn2-c2nccs2)CCN1C1CCCCC1 (stereo not shown) | -4.43
38 | CCc1ccccc1NC(=O)CNC(=O)CSC(=S)N1CCCC1 | 8.94
39 | Cc1nnc(OCc2nc3ccccc3n2C)c2ccccc12 | -10.1
40 | O=C(C1=NN[C@@H]2C(=O)N(c3cccc(F)c3)C(=O)[C@H]12)c1ccc2ccccc2n1 | 6.85
41 | CC(=O)Nc1ccc(C2Nc3ccccc3C(=O)N2C2CCCCC2)cc1 (stereo not shown) | 12.2
42 | COC(=O)c1sc2ccccc2c1NC(=O)c1ccc(S(=O)(=O)N2CC(C)CC(C)C2)cc1 (stereo not shown) | 0.615
43 | CN(c1ccc(C(=O)N2CCOCC2)cc1)S(C)(=O)=O | -0.669
44 | CSc1ccc(C(=O)C2CCCN(C(=O)CCCn3cncn3)C2)cc1 (stereo not shown) | -5.25
45 | CCN(CC)C(=S)SSC(=S)N(CC)CC | 17.2
46 | Cc1ccc(C)c(NC(=S)NCC(c2cccnc2)N2CCOCC2)c1 (stereo not shown) | 6.28

Row | SMILES | hERG current change (%, negative = inhibition) at 1uM [%]
47 | CCn1ncc(CNC(=O)CCCSc2nc(-c3ccco3)cc(C(F)(F)F)n2)c1C | 8.65
48 | CCOC(=O)c1ccc(N2C(=O)CC(N(C)Cc3ccccc3)C2=O)cc1 (stereo not shown) | 12.6
49 | CCOC(=O)CSc1nc2ccccc2c(=O)n1CC | -1.18
50 | CC(C)(C)C(=O)OCc1nc(-c2ccc(O)c(O)c2)cs1 | 5.91
51 | CCN(CCNC(=O)C1CCN(S(=O)(=O)c2cccc3cccnc23)CC1)c1ccccc1 | -7.93
52 | COc1cc2[nH]cc(C(=O)NCc3ccccc3)c(=O)c2cc1OC | 13.2
53 | CC(=O)N(c1ccccc1)c1nc(C)cc(C)c1C#N | 13
54 | Cc1cccc(NC(=O)C2CCN(S(=O)(=O)c3cccs3)CC2)c1 | 10.2
55 | CN1C(=O)C(C)(C)c2cc(S(=O)(=O)N3CCN(c4ccc(F)cc4)CC3)ccc21 | 14.3
56 | COc1ccc(NC(=O)c2ccc(-n3cncn3)c([N+](=O)[O-])c2)cc1 | 13.6
57 | COc1ccc(-c2nn(-c3ccccc3)cc2C(=O)NCC2CCCO2)cc1 (stereo not shown) | 11.2
58 | CC1(C)CC(=O)c2ccc(O)cc2O1 | 11.3
59 | COc1ccc(C(=O)NC(Cc2ccc(OC(=O)c3ccc(OC)cc3)cc2)C(=O)O)cc1 (stereo not shown) | 13.6
60 | CCOC(=O)/C=C/C(=O)OCC(=O)Nc1cccc(Cl)c1Cl | 5.39
61 | Cn1cccc1Cc1nnc(SCC(=O)N2CCCC2)n1CCc1ccccc1 | 10.7
62 | Cn1nc(C(C)(C)C)cc1C(=O)O | 6.64
63 | O=C(NC(Cc1ccccc1)C(=O)NCCc1ccccn1)c1cccs1 (stereo not shown) | 7.71
64 | COc1cccc(-c2nn(C)c3sc(C(=O)NCCCN(C)Cc4ccccc4)cc23)c1 | 9.14
65 | CS(=O)(=O)N(CC(=O)Nc1ccc(S(=O)(=O)N2CCOCC2)cc1)c1ccccc1Cl | 10.7
66 | C[C@@H]1C=C(C(=O)NC2CC2)O[C@H](OCc2ccc(CO)cc2)C1 | 8.28
67 | C=CCn1c(C)cc(C(=O)CSc2nc(N)cc(N)n2)c1C | 12.9
68 | O=Cc1c(NCc2ccc(F)cc2)c2ccccc2[nH]c1=O | 2.69
69 | O=C(Nc1cccc2ccccc12)c1cn(-c2ccccc2)nc1-c1cccs1 | 13.7

Row | SMILES | hERG current change (%, negative = inhibition) at 1uM [%]
70 | CCS(=O)(=O)N1CCCC(C(=O)NCCCOC(C)C)C1 (stereo not shown) | 5.97
71 | COc1ccc(NC(=S)NN2CCOCC2)cc1OC | -8.02
72 | CCCN(C(=O)CSc1nc(C2CC2)n(-c2ccccc2)n1)C1CCS(=O)(=O)C1 (stereo not shown) | 4.85
73 | COc1ccc(OC)c(NC(=O)CSc2ccc(-c3cccnc3)nn2)c1 | -3.81
74 | CN(CC(=O)Nc1ccc(N2CCOCC2)cc1)C(=O)CCc1ccccc1Cl | -3.41
75 | O=[N+]([O-])c1cccc(N/N=C/c2cc([N+](=O)[O-])ccc2O)c1 | 4.49
76 | O=C(CSc1ccccc1)Nc1nccs1 | -2.3
77 | CCn1c(CCCNC(=O)c2cccs2)nc2ccccc21 | 8.09
78 | Cc1cc(=O)oc2cc(OCC(=O)OCC(=O)NC3CC3)ccc12 | 9.91
79 | O=c1[nH]c(C(Cl)Cl)nc2sc3c(c12)CCN(Cc1ccccc1)C3 | 2.4
80 | O=C(COc1ccc(S(=O)(=O)NC2CCCCC2)cc1)NCCC1=CCCCC1 | 8.42
81 | COc1ccc(NC(=O)Nc2ccccc2F)c([N+](=O)[O-])c1 | 9.17
82 | CC(C)C(OC(=O)c1nsc(Cl)c1Cl)C(=O)NCC1CCCO1 (stereo not shown) | 8.55
83 | Cc1ccc(NC(=O)C(c2ccc(Cl)cc2Cl)N2CCCC2)cc1 (stereo not shown) | 5.63
84 | COc1ccc2nc(C)cc(SCC(=O)N3CCCCC3)c2c1 | -4.35
85 | Cc1cccc(N2C(=O)/C(=C\c3ccc(C(=O)O)cc3)c3ccccc3C2=O)c1 | 11.4
86 | CCN(C(C)=O)c1ccc(Oc2nc(OC)cc(OC)n2)cc1 | -16.6
87 | O=c1cc(-c2c(F)c(F)c(F)c(F)c2F)oc2c(F)c(F)c(F)c(F)c12 | -4.46
88 | CCc1ccc(N(CC(=O)NCc2cccnc2)S(=O)(=O)c2ccccc2)cc1 | 5.66
89 | CN(c1ccccc1)S(=O)(=O)c1ccccc1Br | 16
90 | COc1ccc(NC(=O)CSc2nc(C)cs2)c(OC)c1 | 9.43
91 | C/C(=N\Nc1cc(N2CCCCC2)nc(C)n1)c1ccc(Br)cc1 | 3.91
